Measured values taken from the supplement of paper PMC3334620.
Over roughly 33,000 sequences, “E-score (-0.5 to 0.5)” has its median near -0.035; the highest 2% begin near 0.35. This is one part of the list.

These sequences were tested against T1, Pdr3 (UniProt P33200) (assay: PBM E-score (8-mer binding enrichment) (E-score (-0.5 to 0.5)); higher = stronger / more preferred TF binding; most listed sequences are background and not binding sites). Conditions: protein concentration: 200 nM; construct: GST-full length.
T1 sequence: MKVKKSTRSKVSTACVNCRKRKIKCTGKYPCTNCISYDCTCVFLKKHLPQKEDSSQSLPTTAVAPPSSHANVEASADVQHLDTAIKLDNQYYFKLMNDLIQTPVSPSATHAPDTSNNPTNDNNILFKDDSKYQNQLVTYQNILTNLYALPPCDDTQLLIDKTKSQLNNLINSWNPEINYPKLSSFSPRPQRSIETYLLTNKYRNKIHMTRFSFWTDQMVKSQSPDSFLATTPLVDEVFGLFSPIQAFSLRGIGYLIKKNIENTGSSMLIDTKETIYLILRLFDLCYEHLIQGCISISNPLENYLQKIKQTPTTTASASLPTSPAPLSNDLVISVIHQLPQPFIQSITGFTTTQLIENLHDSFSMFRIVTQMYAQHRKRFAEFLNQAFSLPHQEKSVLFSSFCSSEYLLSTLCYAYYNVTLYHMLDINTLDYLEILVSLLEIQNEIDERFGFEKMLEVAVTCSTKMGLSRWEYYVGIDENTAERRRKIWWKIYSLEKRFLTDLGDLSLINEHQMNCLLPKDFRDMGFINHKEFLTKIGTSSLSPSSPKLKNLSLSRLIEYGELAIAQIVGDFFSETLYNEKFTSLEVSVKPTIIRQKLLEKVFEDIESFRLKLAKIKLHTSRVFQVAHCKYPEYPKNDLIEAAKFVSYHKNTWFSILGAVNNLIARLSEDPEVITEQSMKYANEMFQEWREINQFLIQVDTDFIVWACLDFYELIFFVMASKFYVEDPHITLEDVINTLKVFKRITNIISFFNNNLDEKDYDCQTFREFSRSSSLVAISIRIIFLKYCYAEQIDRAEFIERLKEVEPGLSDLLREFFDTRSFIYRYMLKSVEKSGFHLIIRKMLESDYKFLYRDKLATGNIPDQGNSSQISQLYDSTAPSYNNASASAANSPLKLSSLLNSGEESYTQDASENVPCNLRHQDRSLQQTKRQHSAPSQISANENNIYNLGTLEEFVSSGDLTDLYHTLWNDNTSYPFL
How it was run: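 Each ungapped eight-base word and its reverse complement, pooled, received an E-score from the Universal PBM Analysis Suite. Underlying scans, normalised with masliner, recorded fluorescent anti-GST bound to GST-tagged yeast transcription factors. These were applied at about 100-200 nM to universal all-10-mer Agilent arrays double-stranded by primer extension.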

Sequence	PBM E-score
AATTGTGA	-0.149
AGTCCCAA	-0.0626
CGATTCCA	0.112
AACATTCC	0.252
AACCTTTG	-0.165
GGCCGCCC	0.0328
GGTTAACC	0.102
AAGCGTCA	-0.196
ATGAAACC	0.0686
CGAGGTTC	0.162
AGGTTACC	0.221
ACAGGCGC	-0.11
AGCAGAAG	-0.0531
GAAGGATA	-0.121
AAATTATC	0.116
CGTTTGAC	-0.0957
GACGTAAC	-0.171
GTGTAGGA	-0.146
AGATTGAC	-0.0268
CGAGTCAC	-0.179
CCGCGAGA	0.147
GAGCGCAA	-0.148
TCGTATCA	-0.0248
GCGGGTTA	0.269
CGCTCCGC	0.287

Sequence	PBM E-score
CCAGCACA	-0.128
TAGGCTAA	-0.288
GTAGTGAA	-0.0481
GAACAAAA	0.122
TCTTTGAA	-0.184
CACTATCA	-0.171
ATTTCTAG	0.054
ACCCAGGA	-0.301
CCCACATA	-0.0213
CAGTTCAA	-0.0317
AACCAAAA	0.078
ATCCTTTA	-0.114
ATTTATGA	0.117
ATGATCGG	0.0612
ACGGTTAA	-0.038
GTGTATGA	-0.16
AGAGGTAT	0.179
CACGCGAA	-0.094
CACAAGTG	-0.315
AATCTGCA	-0.0755
GAACGGTC	0.134
TCTTTTCA	-0.0634
ACGCTCCC	-0.086
AAGCCATA	-0.245
CTATGTAC	-0.211

Sequence	PBM E-score
GAGACGGC	0.177
CGGCACCA	0.321
GATTAAGA	-0.00248
GGATCAGA	0.147
AATACCAA	-0.0155
AACTAATC	0.098
ATTACCAC	-0.0539
AGGAAAAT	-0.0716
AATATATC	0.142
GAAGCTTA	-0.154
AACTGACA	-0.17
ATCAGTCA	0.0413
ATGAACTC	0.0804
CTCTTAGC	-0.185
GAATAACA	0.156
AGGTTTGG	-0.102
ACAAGTCC	-0.0618
ATCTAGAT	-0.155
CAGTGCCA	-0.292
ACCGGAGT	0.234
GGCTTTAC	0.0445
AGGAGAAA	-0.15
CTCTATGA	-0.142
AAATTGCG	0.0648
AATAGACA	-0.138

Sequence	PBM E-score
GACCACTA	0.0262
GTGTACAA	0.048
AGACATAT	-0.0467
CACTCGTC	-0.0288
GAACTACA	0.129
GTGATCCA	-0.142
AAAGCCGG	0.282
CCCGACGG	0.351
ATAAGTTC	0.276
TATCGCCA	-0.0696
CATCACAA	-0.0793
TATCGACA	0.079
ACAAGTCT	-0.175
GCCCTTAA	0.0144
GAAGGGTC	-0.0957
AGCGGCGC	0.137
CGACATCA	0.0545
GGGAGCCA	-0.185
AGATAGTA	-0.0343
GCGGCCTA	0.0147
AACAAGAG	-0.117
CATGCCAC	-0.0725
AAAATTAA	-0.0599
CTTTCACA	0.108
TACGTGAA	-0.157

Sequence	PBM E-score
CTAAGGGA	-0.0324
AGCGGTCC	0.0698
AATGCCTG	-0.22
CTACTCAG	-0.204
ATAAATGA	-0.132
CGCGTCCA	0.152
GGATACCC	0.0488
CGCCTTTC	0.018
CCGAGTCC	0.268
AAGATGCA	-0.15
TAATTGAA	-0.198
AGACGAAA	0.0335
CCAGCGCC	-0.114
AATCCCAT	-0.0271
GATCCCGC	0.371
CGAGATCG	0.16
AGCTTCAT	0.196
CCATATCA	-0.0527
CGACCCGC	0.113
ACGCCTGG	-0.0917
GTTTTTTA	-0.1
CGGGCAAC	0.161
GTACCACA	-0.0879
CATAATAG	0.00529
AACTTTAC	0.00693

Sequence	PBM E-score
ATGCACCA	-0.213
AAGCGAAT	0.0817
CCGGTAGG	0.158
GCTTCTCA	-0.0707
CACTCGGC	0.258
AGTCTTTC	-0.14
AACTACTC	0.111
CCTCGGGA	0.265
TCAGAAGA	-0.178
GTCTAGTA	-0.00944
ATGGCTGC	-0.0956
ACTAGTTA	-0.124
ACGGAACG	0.48
CCTAATAC	-0.0552
CAGTGGCC	0.0344
CCCCTTGC	-0.211
CAAATAGC	-0.113
CTCCTGTA	0.0223
ACGACCGC	0.0577
CTTATAAA	0.0576
CGCAAACA	0.0537
AGATTGCG	0.127
GCGCGCTA	0.189
GTATCTCA	0.0414
CACCGTCA	0.00596

Sequence	PBM E-score
GGTCGAAC	0.0177
GGTAGTAA	-0.162
AAGGTCGA	0.0892
TATCCGGA	0.446
CCACAACG	0.0187
GCCGTAAA	0.122
CCGGGGCG	0.374
CAATCGTG	-0.0238
CATCCACG	0.0554
GCCATGCA	-0.0425
ATTCTTTA	-0.225
CAGAGCTG	-0.175
AATCAGAC	0.0599
CTGGGAAA	0.0259
AGTCATAA	-0.116
GGAGAAAA	0.0592
AGATGACA	-0.119
TCATCTAA	0.0539
CCAAGTGA	-0.0518
ATCGCACC	0.0138
AAGGTTCC	0.214
GGCGTACC	0.115
